# According to ChEMBL document CHEMBL4888484, “Replenishing the malaria drug discovery pipeline: Screening and hit evaluation of the MMV Hit Generation Library 1 (HGL1) against asexual blood stage Plasmodium falciparum ,using a nano luciferase reporter read-out” (2022):
# The whole screen tested about 150,000 compounds, of which about 540 (0.36%) showed an effect of 50% or more. Some of the results follow.
# Tested on: Plasmodium falciparum
# Assay: Primary screen in NF54 nanoGlo assay, in single point, at 2uM, 72h; a lower Z score goes with more inhibition
# Format: functional, Erythrocyte
# Conditions: timepoint 72 hour
Compound,% Inhibition [%],Z score
Cc1cc(C)nc(NS(=O)(=O)c2ccc(-n3cnnn3)cc2)n1,-31,3.64
Cc1cccc(-c2ncccc2CNS(=O)(=O)Cc2cc(F)cc(F)c2)c1,-6,1.09
OC[C@H]1CCN(c2ncccc2Cl)C[C@@H]1O,6,-0.85
O=C(COc1ccc(Br)cc1)NCCc1nc(-c2ccccc2)no1,-1,0.21
Cc1ncsc1C(=O)N1CCN(CC(C)C)[C@@H]2CS(=O)(=O)C[C@@H]21,-5,0.93
CCOC(=O)c1cc(-c2ccc(F)cc2)n(C2CCN(C(=O)c3cc(C(F)(F)F)cc(C(F)(F)F)c3)CC2)n1,4,-0.48
CCc1ccc([C@H](C)NC(=O)c2ccc3[nH]cc(C(=O)C(=O)N4CCCCCC4)c3c2)cc1,1,-0.23
O=C(O)c1cc(-c2cc3ccccc3cc2O)nc2ccc3nn(-c4ccccc4)nc3c12,5,-0.57
Cc1[nH]nc(NS(=O)(=O)[C@@H](C)C(=O)N(C)C)c1CC(C)C,-4,0.7
COc1ccc(-n2nc(C)c([C@@H]3C=C[C@@H](NCc4ccc(N(C)C)cc4)C3)c2C)cc1,-4,0.66
CCCN(CCc1cccc(F)c1)C(=O)Nc1cccc(N2CCOC2=O)c1C,-11,1.34
Cn1cc(S(=O)(=O)N(CCO)C2CCC2)cc1C(N)=O,-13,1.14
CCN1CCC(NC(=O)c2cc3c(s2)CCCCC3)CC1,-9,1.28
CC(C)N1C[C@@H](C(=O)Nc2ccc(-n3cc(Br)cn3)nc2)CC1=O,3,-0.49
Cc1cccc(-c2ccnc3nc(N4CCN(C(=O)c5cc(F)ccc5C)CC4)nn23)c1,-6,0.56
CS(=O)(=O)N1CCc2[nH]cnc2C12CCN(c1ncccn1)CC2,-11,2.01
Cc1cc(C)n2ncc(CN(C)CCc3scnc3C)c2n1,-2,0.36
O=C(Nc1ccc(C(=O)N2CCc3sccc3C2)cc1)c1cccs1,-7,1.36
O=C(CO)N1C(=O)COc2ccccc21,-43,5.1
COc1ccc(-c2cc(CO)ncc2F)c(OC)n1,-11,1.58
O=C1C[C@H](NC(=O)NCc2cccs2)CN1,-11,2.21

Compound,% Inhibition [%],Z score
CCCN(CCc1cccc(F)c1)C(=O)N[C@H]1CCn2ccnc21,14,-2.05
Cc1ccccc1CC(=O)N1CC2(C[C@@H](C(=O)NC(C)C)N(C)C2)C1,-7,0.87
Cn1ccc(CCNC(=O)[C@@H]2COCCN2CC(F)F)n1,5,-0.78
NC[C@H]1CCCN1C(=O)Cc1c(Cl)cccc1Cl,-1,0.18
O=C1c2ccccc2[C@H]2NC(=O)C3(CCCCC3)N12,-1,0.11
COC[C@@](C)(O)CNC(=O)NCc1ccccc1,-3,0.49
COC(=O)c1csc(-n2nc(-c3ccc(C)cc3)cc2NC(C)=O)n1,4,-0.78
Cn1ccc2ccc(NCC(=O)N3CCCCC3)cc2c1=O,-8,0.94
COCc1ccc(CN2CCC(CCC(=O)N(C)Cc3ccccc3)CC2)o1,8,-0.99
FC(F)(F)c1cnc(N2CCC(n3ccnn3)CC2)s1,-9,0.95
CCN(c1ccnc(N)n1)C1CCCC1,4,-0.45
CCn1cc(C)c(C(=O)O)c1CC(=O)NC1CCCCC1,-3,0.4
CCc1nc(Cn2ncn3cccc3c2=O)cs1,-11,2.11
C[C@@H](c1ccccc1)n1cnc2c1c(=O)n(CCc1ccccc1)c(=O)n2-c1ccc(Cl)cc1,2,-0.43
Nc1nnnn1NCc1cc(Br)ccc1OCc1ccccc1Cl,-41,4.84
CCNC(=O)CNC(=O)N1CCC(Cc2ccccc2)C1C (centres undefined),-10,2.01
Cc1ccc(Cn2cccc2CN(Cc2ccccc2C#N)CC2CCCCC2)cc1,-4,0.75
CC1CC(NC2CCCC(S(C)(=O)=O)C2)CC(C)(C)C1 (centres undefined),-2,0.15
COC(=O)[C@@H]1CCCN1CC(=O)N(CC(F)(F)F)C(C)C,-3,0.36
CC(C)c1csc(CCNC(=O)C[C@H]2CN(C(C)C)CCO2)n1,-15,2.91
O=C1NC[C@H]2CN(Cc3ccc(OC(F)F)c(Cl)c3)CCN12,7,-0.68
